Source: the supplement of paper PMC8728848
The other results are listed elsewhere or left out.

How the values were obtained:
Experiment in all cases: glycan array binding signal (z-score within array); higher = stronger binding
Conditions in all cases: glycan notation: IUPAC condensed, linker removed
[1] = target: Gal(b1-4)GlcNAc(b1-3)Gal(b1-4)GlcNAc(b1-6)[Gal(b1-3)]GalNAc
Method in brief: (§1)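 Negative Z-scores can be read as non-binding. The Z-score is calculated within each array and then averaged across arrays of one protein sequence at different concentrations or buffers and across linkers. Arrays, 3228 in all, were curated from the Consortium for Functional Glycomics database and kept only where the protein sequence was available.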

[2] = target: Gal(b1-4)GlcNAc(b1-3)Gal(b1-4)[Fuc(a1-3)]GlcNAc(b1-3)Gal(b1-4)[Fuc(a1-3)]GlcNAc
Method in brief: as §1

[3] = target: Gal(b1-4)GlcNAc(b1-3)GalNAc
Method in brief: as §1

[4] = target: Gal(b1-4)GlcNAc(b1-3)[Fuc(a1-3)GlcNAc(b1-6)]Gal(b1-4)Glc
Method in brief: as §1

[5] = target: Gal(b1-4)GlcNAc(b1-3)[Gal(b1-4)GlcNAc(b1-6)]Gal(b1-4)GlcNAc
Method in brief: as §1

[6] = target: Gal(b1-4)GlcNAc(b1-3)[GlcNAc(b1-6)]Gal(b1-4)GlcNAc
Method in brief: as §1

[7] = target: Gal(b1-4)GlcNAc(b1-6)Gal(b1-4)GlcNAc
Method in brief: as §1

[8] = target: Gal(b1-4)GlcNAc(b1-6)GalNAc
Method in brief: as §1

[9] = target: Gal(b1-4)GlcNAc(b1-6)[Gal(b1-3)]GalNAc
Method in brief: as §1

[10] = target: Gal(b1-4)GlcNAc(b1-6)[Gal(b1-4)GlcNAc(b1-3)]GalNAc
Method in brief: as §1

Gal(b1-4)GlcNAc6P = target: Gal(b1-4)GlcNAc6P
Method in brief: as §1

Gal(b1-6)Gal = target: Gal(b1-6)Gal
Method in brief: as §1

Gal3S(b1-3)GalNAc = target: Gal3S(b1-3)GalNAc
Method in brief: as §1

Gal3S(b1-3)GlcNAc = target: Gal3S(b1-3)GlcNAc
Method in brief: as §1

[11] = target: Gal3S(b1-3)[Fuc(a1-4)]GlcNAc
Method in brief: as §1

Gal3S(b1-4)Glc = target: Gal3S(b1-4)Glc
Method in brief: as §1

Gal3S(b1-4)Glc6S = target: Gal3S(b1-4)Glc6S
Method in brief: as §1

Gal3S(b1-4)GlcNAc = target: Gal3S(b1-4)GlcNAc
Method in brief: as §1

[12] = target: Gal3S(b1-4)[Fuc(a1-3)]Glc6S
Method in brief: as §1

[13] = target: Gal3S(b1-4)[Fuc(a1-3)]GlcNAc
Method in brief: as §1

[14] = target: Gal3S(b1-4)[Fuc(a1-3)]GlcNAc6S
Method in brief: as §1

Gal3S4S(b1-4)GlcNAc = target: Gal3S4S(b1-4)GlcNAc
Method in brief: as §1

Gal3S6S(b1-4)GlcNAc = target: Gal3S6S(b1-4)GlcNAc
Method in brief: as §1

Gal3S6S(b1-4)GlcNAc6S = target: Gal3S6S(b1-4)GlcNAc6S
Method in brief: as §1

Gal4S(b1-4)GlcNAc = target: Gal4S(b1-4)GlcNAc
Method in brief: as §1

Gal4S6S(b1-4)GlcNAc = target: Gal4S6S(b1-4)GlcNAc
Method in brief: as §1

Gal6P(b1-4)GlcNAc = target: Gal6P(b1-4)GlcNAc
Method in brief: as §1

Gal6S(b1-3)GlcNAc = target: Gal6S(b1-3)GlcNAc
Method in brief: as §1

Gal6S(b1-3)GlcNAc6S = target: Gal6S(b1-3)GlcNAc6S
Method in brief: as §1

Gal6S(b1-4)Glc = target: Gal6S(b1-4)Glc
Method in brief: as §1

Gal6S(b1-4)Glc6S = target: Gal6S(b1-4)Glc6S
Method in brief: as §1

Gal6S(b1-4)GlcNAc = target: Gal6S(b1-4)GlcNAc
Method in brief: as §1

Gal6S(b1-4)GlcNAc6S = target: Gal6S(b1-4)GlcNAc6S
Method in brief: as §1

GalNAc(a1-3)Gal = target: GalNAc(a1-3)Gal
Method in brief: as §1

GalNAc(a1-3)GalNAc = target: GalNAc(a1-3)GalNAc
Method in brief: as §1

[15] = target: GalNAc(a1-3)GalNAc(b1-3)Gal(a1-4)Gal(b1-4)Glc
Method in brief: as §1

[16] = target: GalNAc(a1-3)GalNAc(b1-3)Gal(a1-4)Gal(b1-4)GlcNAc
Method in brief: as §1

B1: PX9937D-bvu-500-26-500 (Bacteroides vulgatus) (protein)
chain: DPVSDITDLNYWKTPEQFDSFVFGLHSRFRSHSWNMFLLGEARSDVFGGIPFGGEATQGMERFPYNTLNAENPGISGFGDLYQNINQMNLFISRTLHTDVLTESARNYYLGQVYGLRAYYMYQLYRSWGDVVFTEEPSLGFEVGKLAKAATPAAEIFEQVKKDIESSLSYFGSDYTIKEKKSLWSKAATLMLKADVYLWSAHRDGGEGDARTAKNALVDIQNNISRSNLDLMDTYQGVFAYDNKGNKEIIFTIHNELFEYNLWNGNNDLFPQADYLGKFYNADGTLINTSVENNFGIMRLMVKLENFKKFLPGDTRRDVTLKDVYNKVENGKLELVGVYPHKYWGVMNGSTRVRCDDYPIYRYSDLLLMLAEAKVLLGEDPATEINRVRRRAFGDAYDASTVGFPNQEVDKRPADAVLQERLFEFMLEGKRWYDLRRFGDSYVLDYTPAEPARLLWPINQGALTNNPLLKQTVGY
- glycan array binding signal (z-score) [1]: -0.492
- glycan array binding signal (z-score) [2]: -0.506
- glycan array binding signal (z-score) [3]: -0.157
- glycan array binding signal (z-score) [4]: 0.466
- glycan array binding signal (z-score) [5]: -0.448
- glycan array binding signal (z-score) [6]: -0.268
- glycan array binding signal (z-score) [7]: -0.271
- glycan array binding signal (z-score) [8]: -0.014
- glycan array binding signal (z-score) [9]: 0.19
- glycan array binding signal (z-score) [10]: -0.31
- glycan array binding signal (z-score) (Gal(b1-4)GlcNAc6P): 0.132
- glycan array binding signal (z-score) (Gal(b1-6)Gal): -0.175
- glycan array binding signal (z-score) (Gal3S(b1-3)GalNAc): 0.001
- glycan array binding signal (z-score) (Gal3S(b1-3)GlcNAc): -0.008
- glycan array binding signal (z-score) [11]: -0.09
- glycan array binding signal (z-score) (Gal3S(b1-4)Glc): 0.35
- glycan array binding signal (z-score) (Gal3S(b1-4)Glc6S): -0.258
- glycan array binding signal (z-score) (Gal3S(b1-4)GlcNAc): -0.143
- glycan array binding signal (z-score) [12]: 0.78
- glycan array binding signal (z-score) [13]: 0.119
- glycan array binding signal (z-score) [14]: -0.235
- glycan array binding signal (z-score) (Gal3S4S(b1-4)GlcNAc): -0.325
- glycan array binding signal (z-score) (Gal3S6S(b1-4)GlcNAc): -0.426
- glycan array binding signal (z-score) (Gal3S6S(b1-4)GlcNAc6S): 0.182
- glycan array binding signal (z-score) (Gal4S(b1-4)GlcNAc): -0.435
- glycan array binding signal (z-score) (Gal4S6S(b1-4)GlcNAc): -0.402
- glycan array binding signal (z-score) (Gal6P(b1-4)GlcNAc): -0.266
- glycan array binding signal (z-score) (Gal6S(b1-3)GlcNAc): 1.2
- glycan array binding signal (z-score) (Gal6S(b1-3)GlcNAc6S): 0.946
- glycan array binding signal (z-score) (Gal6S(b1-4)Glc): -0.225
- glycan array binding signal (z-score) (Gal6S(b1-4)Glc6S): 0.307
- glycan array binding signal (z-score) (Gal6S(b1-4)GlcNAc): -0.446
- glycan array binding signal (z-score) (Gal6S(b1-4)GlcNAc6S): -0.22
- glycan array binding signal (z-score) (GalNAc(a1-3)Gal): 0.291
- glycan array binding signal (z-score) (GalNAc(a1-3)GalNAc): -0.228
- glycan array binding signal (z-score) [15]: -0.432
- glycan array binding signal (z-score) [16]: -0.65
